Test results: the supplement of paper PMC10126150
Values marked as one replicate rest on one cluster of the flow cell; about a third of the high ones do not repeat.

System: ATP
Test: switch fluorescence ratio, 500 uM ATP over buffer (Cy3 cluster intensity, sum of 5 cycles each) (fold (ratio)); higher = stronger signal-on switching upon ATP binding; sequences stand for … in TCGTCGGCAGCGTCAGATGTGTATAAGAGACAGTTTTTTTTTTTTTTTTTTTTTTTTT…TC
Settings: aptamer strand: ATP DNA aptamer (quencher-CACCTGGGGGAGTATTGCGGAGGAAGG + anchor), 100 nM annealed; ATP concentration: 500 uM; one replicate
Procedure, shortened: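 Clusters with intensities outside 100-1000 RFU were excluded. The remaining Cy3-labelled switching-strand clusters on a modified Illumina MiSeq flow-cell had been annealed to 100 nM quencher-labelled ATP aptamer and imaged in selection buffer, then after 15 min with 500 uM ATP at 22 °C, for five cycles separated by NaOH stripping and re-annealing. The fluorescence ratio, averaged per switch-domain sequence, is each cluster's summed target-cycle Cy3 intensity over its summed buffer-cycle Cy3 intensity.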
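Note: ATP exposure 15 min at 22 °C before imaging.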

| Sequence | switch fluorescence ratio |
| --- | --- |
| TCCTGCATTG | 1.06 |
| ATTTGTGCTC | 0.973 |
| GAGCGGCAGG | 0.989 |
| ATAGATGCAC | 1.03 |
| GGTTGTTAAT | 0.969 |
| TGCAACGGCA | 0.97 |
| TTTGGCGATA | 0.999 |
| CAACGCTAAT | 2.49 |
| CGTGTGGTAA | 0.986 |
| TTGCACTATT | 1.15 |
| CCTCCTCGAT | 3.57 |
| ATAGGGGTTA | 1.02 |
| AGATCGCTGG | 0.97 |
| CGGTTTGGGC | 0.959 |
| GTAACAGGAG | 1.02 |
| CTGAGGAACT | 0.981 |
| CCTCAAGGGA | 1.04 |
| TATAAGGGT | 0.968 |
| TCTCTTATTA | 1.01 |
| TACACCTAAC | 1.34 |
| TATGATGGAT | 1.04 |
| TGCTTTTGCC | 0.953 |
| GTAGCGTTAG | 1.04 |

| Sequence | switch fluorescence ratio |
| --- | --- |
| CGCACGGGGA | 1.05 |
| GCCGATGCGT | 1.1 |
| TACCCGGTCA | 1.01 |
| CAGGTGTCCT | 1.2 |
| CTTACTCAAG | 1.06 |
| CTGAGGATTT | 1.01 |
| ATCGTCAACC | 1.09 |
| AGCTCTACAG | 1.02 |
| GAGATCCGAC | 1.1 |
| TTACGGATAT | 1.05 |
| ATGTGACAAT | 0.996 |
| GCGAGGTATA | 1.01 |
| CAGCACCTTT | 1.01 |
| GTTCAAATGG | 0.99 |
| AGCGGTTGA | 1.05 |
| ACGCCCACAA | 1.29 |
| TGAACGTGGG | 1.01 |
| GTCCTGGCCA | 0.987 |
| CGCAAAGACT | 2.73 |
| GTCCGTCTGT | 1.06 |
| TGTGGAGCAC | 1.38 |
| TATCTCATAA | 0.991 |
| GAAAGGAAAC | 0.986 |

| Sequence | switch fluorescence ratio |
| --- | --- |
| CGGAAACGAC | 1.17 |
| GAAAGTCCAG | 0.998 |
| CGAACCGTGA | 1.06 |
| TCTAGGCTCG | 0.981 |
| TGTCTGGATA | 0.986 |
| TCTTAGCTG | 1.04 |
| TTTAGGCTAG | 0.994 |
| ATAACGAGAC | 1.69 |
| CTCGAATCCT | 1.05 |
| TTGAGGCGCC | 0.999 |
| TATGCTCC | 1.08 |
| CCTCCTGGCT | 1.7 |
| ACTCGGGGCG | 1.03 |
| TTCGGCTGAA | 0.973 |
| AGACCAGATC | 1 |
| CGTTAATGCG | 0.939 |
| AATGTTTACA | 1.02 |
| GATAGGTTAC | 1.01 |
| GGTTCTAGT | 1.01 |
| TTGTCGCGGG | 0.973 |
| TACCTGGAAG | 0.972 |
| ATGGAAACAC | 1.04 |
| CTGGTGATGG | 1.02 |

| Sequence | switch fluorescence ratio |
| --- | --- |
| TCAGCACGCG | 1.05 |
| CGGCGGAGTG | 0.978 |
| TTCGGAATGA | 1.15 |
| CTTTAACGCG | 1.01 |
| CCGGGATATT | 1.31 |
| CCTCGATTAA | 1.06 |
| AAGTAGCCTC | 1.04 |
| ATTCAGATGC | 0.973 |
| AACTGCAACC | 1.45 |
| TTCATTACAC | 0.984 |
| GATTCTGGCG | 1.04 |
| CGACATTGGT | 0.99 |
| TTGCTCTGCC | 1.01 |
| GGTGCCGGTG | 0.99 |
| TAGAGTACGG | 0.987 |
| GTTTGGCGGC | 1.13 |
| GCCGCCGGTC | 1.03 |
| ACGTTAACGA | 1.04 |
| AAATTAGGG | 0.986 |
| TGATGTTGAG | 0.999 |
| TGGGTATGAT | 1.01 |
| TAGTTACGAG | 1.03 |
| TCGCGTTAGC | 0.949 |

| Sequence | switch fluorescence ratio |
| --- | --- |
| TAACGCGGGA | 0.877 |
| TGGTCGTATG | 0.956 |
| TTTCTGTCAT | 0.978 |
| TGAAAAAATG | 0.966 |
| CTTATTGCTG | 0.999 |
| CACGACTTTG | 1 |
| TTAAGAGGCG | 0.981 |
| CAGTAGACTC | 1.06 |
| TAGTACATTG | 0.979 |
| CGTTTCCTAG | 0.991 |
| AGTCTGAGCA | 0.958 |
| CAGTGTAGCA | 1 |
| AGTCACAGAG | 1.02 |
| GCAAGTCCGC | 1.42 |
| CTCACCCATA | 1.13 |
| CTGCACGCAG | 1.09 |
| TACCAATA | 1.08 |
| ACACATGTCA | 1.02 |
| ATAATTGAAC | 1.26 |
| GAGCGGGCGA | 1.08 |
| GCCCCCAGCC | 1.28 |
| CATAGACACG | 1.01 |
| GGATCATGTA | 0.969 |

| Sequence | switch fluorescence ratio |
| --- | --- |
| TATCACCGTG | 1.02 |
| AGATCGCAAC | 1.81 |
| CACGAAGGCG | 1.02 |
| TATTCCGATG | 1.34 |
| GGCCGTTCTT | 1.02 |
| CTAGACGTTC | 1.05 |
| TGTTAGGG | 1.01 |
| ACATGCGTAC | 1.15 |
| AAACCTGAG | 1.47 |
| CGCGGGA | 0.984 |
| TAAGCATTAA | 1.01 |
| GGTATATTGC | 0.99 |
| AGAATGCCAT | 1.01 |
| AAAATGGTCG | 0.995 |
| ACAGGGTAAG | 1.01 |
| TTACGCAAGA | 4.05 |
| GGGGCTGGAC | 1.02 |
| AGAACGAGGC | 1.08 |
| TACTCGCCTT | 1.15 |
| GAATGTCTGG | 1 |
| AGCATTGAGT | 1.01 |
| CCCGGACTGA | 1.02 |
| TCTGTCCGC | 1.68 |

| Sequence | switch fluorescence ratio |
| --- | --- |
| ATGGAAGACC | 1.04 |
| TAAGGAAATG | 1.04 |
| GGGTGGATAA | 1.02 |
| TGCGGGCCAC | 0.981 |
| ATGCGTATCG | 0.939 |
| GTCGATGTTT | 0.954 |
| ATACGCATAA | 2.84 |
| ACAGGATCA | 1 |
| CCATAGGAGC | 1.03 |
| GTCAATGCTA | 1.09 |
| TGGACTGGAG | 0.969 |
| CACGGGTCTG | 1.04 |
| TTCAGGGATT | 0.974 |
| ACGTCTTTAT | 0.959 |
| CATACTGTTA | 1.05 |
| GGTTCATCCA | 1.02 |
| GGTAGATGCC | 1 |
| TCATCCGTGG | 1.69 |
| ATGCTTGAG | 0.981 |
